The chains are these.
T1: UNK ZnF1-3 (human, UniProt Q9C0B0 31-174)
T1 sequence: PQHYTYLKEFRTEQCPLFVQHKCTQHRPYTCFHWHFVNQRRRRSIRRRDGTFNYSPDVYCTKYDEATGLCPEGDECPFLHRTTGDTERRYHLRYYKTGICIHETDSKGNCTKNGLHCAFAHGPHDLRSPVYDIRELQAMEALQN

B1: chr1:184378663:184378664:+_ENSMUSG00000026510_ENSMUST00000117245|mus_mus|FALSE|FALSE (ssRNA)
RNA: GGGAGUUCUACAGUCCGACGAUCCAAGAAAGGCAGUAAUUUUGUUGGGCUGAGUGGUCGAGGAAUCCUUUCGUUUUCAUGGCUCUCAUGAACUGAAGAAACGGUCUCUGUCUCGGGCUCCGGACUGCCAGGCUUCCCCUGGCUCAACAGAGGAUUGAGCAUCA
B2: chr7:141441981:141441982:+_ENSG00000106028_ENST00000265304|hu_mus|hu_hu_hu_mus_False|8_78 (ssRNA)
RNA: GGGAGUUCUACAGUCCGACGAUCCUCAUGUCUUACAAACUGACGAAAUACCUGUAAUACAGGUCUUCGAAACAUGGCUUCUGUUUUUCUUACAACCUAAUCUUUAGGCUUUUCCUAAAGGAAAGAAUAACCCGAGCAAAAUGACAACAGAGGAUUGAGCAUCA
B3: 120770645_120770765_141_5pUTR_ENSMUSG00000043207_ENSMUST00000058754|mouse|control|control (ssRNA)
RNA: GGGAGUUCUACAGUCCGACGAUCCUCAGCGACACGCGUCCCUCGGAGAGUGCCAGCGGUGUCACAACAAUACGGGUCCCUUCCGAGGGCUUCUUCAGACGCCCAUUCCCUCAGCUUUGCCAGAAGUGUCACAAAGACACGAUUCAACAGAGGAUUGAGCAUCA
B4: chr2:202488911:202488912:-_ENSG00000155755_ENST00000286196|hu_mus|hu_hu_hu_mus_False|58_58 (ssRNA)
RNA: GGGAGUUCUACAGUCCGACGAUCAUUGAAACAUUUUUCAUAAUCUCCAGUAGCAUUUCAGCAUUAUGUAACAAAAGAUCUAUUACAAAUACAUGUAUCUUAUAAAAAUACACUUAAAAACACGAGUGGGGAGCGCAGGCGCCACAACAGAGGAUUGAGCAUCA
B5: chr17:71578653:71578654:+_ENSMUSG00000024052_ENSMUST00000129635|mus_hu|FALSE|FALSE (ssRNA)
RNA: GGGAGUUCUACAGUCCGACGAUCAGAUCCUCGUGCUGCCUGGGCCCCCUUGUCAUCAUCGGAGCUCACGCCUACAUCACAUGUGUCUUCUGCAGCAGCAGAUGCGGCCUGCUCUUCCUUCUUACUGUCCUGUUUGUAUUUCUUCAACAGAGGAUUGAGCAUCA
B6: chr2:42509997:42509998:+_ENSG00000143924_ENST00000318522|hu_mus|hu_hu_hu_mus_True|78_88 (ssRNA)
RNA: GGGAGUUCUACAGUCCGACGAUCUCGCUGAGUCCUCUCCUCAUAAUUAAAUAGUACUACUACUGAUGCGAUAAAAUAAACUAUCUCCCCUGUGGGAAGCAGGUAUACAUUCGCUCUACAGUCCUUUCCUCGAUAACCGUAUACCAACAGAGGAUUGAGCAUCA
B7: chr10:73576327:73576328:-_ENSG00000197746_ENST00000394936|hu_mus|motif|central (ssRNA)
RNA: GGGAGUUCUACAGUCCGACGAUCCCCACUGCCAGGCAGACGCUUCACUCAUGAGGUGAACAGGCAGGUCAACAAGAGCGGCAGGUGGUGGGAAAGCCGUGCAGGACCCCAAACAGCCAGGCAGAGGCCACACGGUCAAGGGCCCAACAGAGGAUUGAGCAUCA
B8: chr11:86893775:86893776:-_ENSMUSG00000020495_ENSMUST00000020801|mus_hu|FALSE|FALSE (ssRNA)
RNA: GGGAGUUCUACAGUCCGACGAUCCCUCAUAAGUUGAGCAUAAUGAGGUUUCAGCCCUCUACCUUGAGAGGAUGACAGAAUAUAUAAGGGCAUGUCACUAUUUAGGGCUUUUAAAGCUGAUUCCUUUGGCCCACUUCCCAUUACCAACAGAGGAUUGAGCAUCA
B9: 90660614_90660734_1853_3pUTR_ENSG00000112182_ENST00000537989|human|control|control (ssRNA)
RNA: GGGAGUUCUACAGUCCGACGAUCUGGACACCUCCUUCUGGCCCACGUGGGGCUGUCCAUAAUUCCCUGUGAAAGGGGUGUAGUCAGUUUUAAGGUCACCCUGAGUGAUCCCCUUGUCAAAAGGGCAGGCUGGACUCCUGGCAACAACAGAGGAUUGAGCAUCA
B10: chr3:32568357:32568358:-_ENSG00000144635_ENST00000273130|hu_mus|FALSE|FALSE (ssRNA)
RNA: GGGAGUUCUACAGUCCGACGAUCCGUAGGAGAUGUAGGUGUUGUAGGAGAAACAGAAGCAGGUUUCCGUGUGAUUCUGUCUAGCUCUGCGUGAACAUCUGAAAGCACAGGUUUCUGGCCUGACUUUUUGGCGGACGGUGGCAACAACAGAGGAUUGAGCAUCA
B11: chr5:21252845:21252846:+_ENSMUSG00000029017_ENSMUST00000030882|mus_mus|motif|central (ssRNA)
RNA: GGGAGUUCUACAGUCCGACGAUCGUUUGCGACCAUGAGACAGAUCGUGUCUGGAUGGGCCCAACCAACUGCUUCAACAGCGGUUGCAAGGUGCGCCAAUGGCAUCUUGUCAUCCCUCACCCGAAUCUCACUUCCAGUGAACUUCAACAGAGGAUUGAGCAUCA
B12: chr1:39494564:39494565:+_ENSG00000168653_ENST00000372967|hu_mus|FALSE|FALSE (ssRNA)
RNA: GGGAGUUCUACAGUCCGACGAUCAUGCAUUCGCCUCAUCGUUUUGUACCGAAGCAAGCACUCUUCGAAGUCAUCGAACUCUAUCUUGCACUCCUUUUUCGCCCGGGUCCCACCGAUCCCGUGUGCACACUCUAUCCACUCUUUCAACAGAGGAUUGAGCAUCA
B13: chrX:160370135:160370136:+_ENSMUSG00000031367_ENSMUST00000069041|mus_hu|FALSE|FALSE (ssRNA)
RNA: GGGAGUUCUACAGUCCGACGAUCAAUGAAGCGGCUUAGCAAAACAGUAAUACUGACAAGACAUCAUCUUACACCAUGAGCUAACAUGGACAUGAAGGGAGUGACCAUCUACAGUGUGUGAAAUGCCACAAGAAGUCAUCAACACAACAGAGGAUUGAGCAUCA
B14: chr2:32089778:32089779:+_ENSMUSG00000039262_ENSMUST00000036691|mus_mus|motif|central (ssRNA)
RNA: GGGAGUUCUACAGUCCGACGAUCCUAAACAAGCUGCACAGUACACCUUUAGCAUCGUCUGCCCUUUCAAAUAGCUGGUCGGAGUGAAAGACAGAGGGAAGGCCAAAAGAAAAGCAAAGGAAAACAAAAGGACCCUCAAAAAGACAACAGAGGAUUGAGCAUCA
B15: chr10:114190419:114190420:-_ENSG00000023041_ENST00000369405|hu_mus|FALSE|FALSE (ssRNA)
RNA: GGGAGUUCUACAGUCCGACGAUCGACGGCAGGAAUUCAAAGGCAUAUGCAGAAUGGCUUCUGUUUCAAAACGGUAAUAAACAUUUCUGAAGUCAUGGCACUAGGGCAUCUUUGAGGAAAAGAAUACCUUAAGCAGAGUAGGCUCAACAGAGGAUUGAGCAUCA
B16: 14004349_14004469_1688_3pUTR_ENSMUSG00000024420_ENSMUST00000025288|mouse|control|control (ssRNA)
RNA: GGGAGUUCUACAGUCCGACGAUCGGAUUGGCAAACCCAUGAGAACAUCGGAUGUGCUCCUGAAGGGUGUUGAGGUCAUUGACAACUUCGGAACAGAAGUUGCACUGGUAAACAAUGGCAGGCAUGGCCGAAACAAUCAGGCCGCAACAGAGGAUUGAGCAUCA
B17: chrX:98862621:98862622:+_ENSMUSG00000034160_ENSMUST00000044475|mus_hu|mus_mus_mus_hu_False|58_68 (ssRNA)
RNA: GGGAGUUCUACAGUCCGACGAUCCUGCAUCUCCUUUAGAGUGUUUCCCAUAUUAGAGUAGGCAUCAGCAAAUGUAGGACUAAUUCGAAUAGCCUCCUUAUAAUGCAUCAGAGCUUCCUGCAGUUUUCCCUGCUGCUGCAGUACCAACAGAGGAUUGAGCAUCA
B18: chr1:60041781:60041782:+_ENSMUSG00000041040_ENSMUST00000036540|mus_hu|mus_mus_mus_hu_False|78_78 (ssRNA)
RNA: GGGAGUUCUACAGUCCGACGAUCAAGUUUACAAUAGUAAAGUAAAUGCAGUAGUGGAAUGGCAAGUUUUAUUUUCCUUCACAAAAGAAAAUCUUUAUAACCCAGUCCUAGUCUUGGACAUAGUGAAAGCUAUAAAUUCUGACUCAACAGAGGAUUGAGCAUCA
B19: 88103482_88103602_2046_3pUTR_ENSG00000163320_ENST00000309534|human|control|control (ssRNA)
RNA: GGGAGUUCUACAGUCCGACGAUCAGAUCAUUUCCUGAACAUGGCUGAUCUUUAAGAGAACAAUUUCCUCACCCAAAGUUAUGCAGGAUACUGCCAGAUCUCCAAUACAAAAAACCUGCCAGAAUUUCUAGACAAUUGUUUACCCAACAGAGGAUUGAGCAUCA
B20: chr4:25749455:25749456:-_ENSG00000091490_ENST00000264868|hu_hu|hu_hu_hu_mus_False|38_48 (ssRNA)
RNA: GGGAGUUCUACAGUCCGACGAUCGCACUAUGACCUCUAGAAAAAUCCACAGGGGGAAAAAAUGUAAACCAAUGUACAAUGUUAUCGCCCUCCCUGCAUUUCCAGGCUUUGUCUCAAGGCUCCUUCUAGCUGCUGGAUUUGGGACAACAGAGGAUUGAGCAUCA
B21: chr8:117878989:117878990:-_ENSG00000164754_ENST00000297338|hu_hu|hu_hu_hu_mus_True|28_28 (ssRNA)
RNA: GGGAGUUCUACAGUCCGACGAUCCCAGAGGCCCUCGUUUACUGAGGACAAAAUGUGCGUAGAACAUUUUUCUUAUUUGCUAUGAAAUAAGAAGAAACCUGGAUCUCCCGCUGGGAGCGGGAGGGGUGGGUGGCCCGGGGAGGGCAACAGAGGAUUGAGCAUCA
B22: chr10:1038518:1038519:+_ENSG00000107937_ENST00000545048|hu_hu|hu_hu_hu_mus_False|28_108 (ssRNA)
RNA: GGGAGUUCUACAGUCCGACGAUCCAGUCUAUCAUGGUAAUUCUGUUGAGUAAAUUUGACUUUUCUCAUAUAAAAAUGUCGAAUCCGAUGAAUUUGAUAAUGUUUAUGAAUAACGGUUGGAGUCUUUCGUUGAGUCUUGGAUAACAACAGAGGAUUGAGCAUCA

The values that follow come from PMC12136788.

The list shows a part of the results.

The target of the test is T1, UNK ZnF1-3. Kind of test: nsRBNS (natural sequence RNA bind-n-seq); RBNS binding buffer (assumed for nsRBNS): 25 mM Tris pH 7.5, 150 mM KCl, 3 mM MgCl2, 0.01% Triton X-100, 500 ug/ml BSA, 20 U/ml SUPERase-In, 4 C; UNK is unkempt and MSI1 is Musashi-1; names of the RNAs are library labels; protein concentration not given here; high values mean tight binding.
As for B1, the binding signal worked out at 0.811 enrichment R. With B2 the figure was 0.724 enrichment R; with B3, 0.703 enrichment R. Consider B4, for which the binding signal was found to be 0.917 enrichment R.

On to B5, for which the binding signal is 0.543 enrichment R.

The molecule B6 yielded a binding signal of 1.41 enrichment R. B7 yielded a binding signal of 1.44 enrichment R. To B8 belongs 0.99 enrichment R. Regarding B9, the binding signal is 0.857 enrichment R. To B10 belongs 0.716 enrichment R.

B11 showed a binding signal of 0.401 enrichment R. To B12 belongs 0.652 enrichment R. In turn, B13 showed a binding signal of 1.14 enrichment R. Molecule B14 showed a binding signal of 2.61 enrichment R. For B15, the binding signal stood at 1.86 enrichment R.

Take B16: the binding signal was determined as 1.44 enrichment R. To B17 belongs 1.1 enrichment R; to B18, 0.648 enrichment R; to B19, 1.25 enrichment R.

The molecule B20 showed a binding signal of 1.23 enrichment R. With B21 the figure was 1.04 enrichment R. To B22 belongs 0.607 enrichment R.
